{"source": "PubChem BioAssay AID2546", "about": "(National Center for Advancing Translational Sciences (NCATS), 2010)", "note": "The whole screen tested about 310,000 compounds, of which about 11,000 (3.5%) were called active. The inconclusive results got no clear call from the source; some entries with a clear call stand among them for comparison. Calls come from the whole dose curve; as a rule, active = well fitted inhibition curve with a large enough effect; inconclusive = small, poorly fitted or top-dose-only effect, or effect the other way; inactive = flat fitted curve, though single readings scatter. Potencies of inconclusive entries are left out as doubtful fits. % is set by controls: 0 for no effect and ±100 for the full control effect; potency is the fitted concentration of half-maximal effect; tags give direction and shape of the fitted curve.", "data": [{"test": "VP16 counterscreen qHTS for inhibitors of ROR gamma transcriptional activity;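 note: Gal4-VP16 expression switched on by copper sulfate through the metallothionein promoter; nearly all actives have a fitted effect of over 50% in size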", "settings": "Drosophila S2 Gal4-VP16 UAS-luciferase, luminescence, 20 h; activity, negative = inhibition: at 53.6 µM (top of the series)", "values": [{"smiles": "Cc1ccc(/C=C/C(=O)Nc2cccc(S(=O)(=O)N3CCOCC3)c2)o1", "Potency": "inconclusive [inhibitor, partial curve]"}, {"smiles": "COc1ccc(-n2nc(C(=O)NCC(=O)Nc3cccc(Cl)c3)c3ccccc3c2=O)cc1OC", "Potency": "active: 11.2 µM"}, {"smiles": "CC1CCc2c(C(=O)Nc3nccs3)csc2C1", "note": "(stereo not given)", "Potency": "active: 8.91 µM"}, {"smiles": "CCc1ccccc1N1CSC2=C(C#N)C(c3ccccc3F)CC(=O)N2C1", "note": "(stereo not given)", "Potency": "inconclusive [inhibitor, single point]"}, {"smiles": "S=C(NCc1ccco1)N1CCN(c2nc(-c3ccc(Cl)cc3)cs2)CC1", "Potency": "inconclusive [inhibitor, single point]"}, {"smiles": "O=C(CSc1nnc2ccccn12)c1ccc2c(c1)OCCO2", "Potency": "inconclusive [inhibitor, single point]"}, {"smiles": "CCOc1ccc(C(=O)CC(=O)C(=O)NCCc2ccc(OC)c(OC)c2)cc1", "Potency": "inconclusive [inhibitor, partial curve, poor fit]"}, {"smiles": "CCCc1cc(-c2[nH]ncc2-c2ccc3c(c2)OCCCO3)c(O)cc1OC", "Potency": "inconclusive [inhibitor, single point]"}, {"smiles": "O=C(Nc1cccs1)Nc1c(F)c(F)c(F)c(F)c1F", "Potency": "inconclusive [inhibitor, single point]"}, {"smiles": "CCC1CCCCN1C(=S)NC1CCCCC1", "note": "(stereo not given)", "Potency": "inconclusive [inhibitor, single point]"}, {"smiles": "O=C(N/N=C/c1ccoc1)c1cccc([N+](=O)[O-])c1", "Potency": "inconclusive [inhibitor, single point]"}, {"smiles": "N[C@@H](COP(=O)(O)O)C(=O)O", "activity, negative = inhibition": "inactive: -2.96%"}, {"smiles": "Cc1csc2ncnc(N3CCN(C(=O)Nc4ccc(OC(F)(F)F)cc4)CC3)c12", "Potency": "inconclusive [inhibitor, single point]"}, {"smiles": "Cc1ccc(C(=O)N(CC(=O)NC2CCCCC2)c2ccccc2C)s1", "activity, negative = inhibition": "inactive: 1.49%"}, {"smiles": "CC1=CC(C)(C)Nc2ccc(OC(=O)CN3C(=O)c4ccccc4C3=O)cc21", "Potency": "active: 7.08 µM"}, {"smiles": "Cc1ccc(Cl)cc1NC(=O)C1CCCN(S(C)(=O)=O)C1", "note": "(stereo not given)", "activity, negative = inhibition": "inactive: -1.65%"}, {"smiles": "CC(C)CC(=O)NC(=S)Nc1ccc(S(=O)(=O)NC(C)(C)C)cc1", "Potency": "inconclusive [inhibitor, partial curve, poor fit]"}, {"smiles": "O=C(CCCSc1nc2sc3c(c2c(=O)[nH]1)CCC3)NCCO", "Potency": "inconclusive [inhibitor, single point]"}, {"smiles": "COc1ccc(OC)c(NC(=O)Nc2cc(C(=O)O)ccc2C)c1", "activity, negative = inhibition": "inactive: -22.4%"}, {"smiles": "CCOC(=O)c1c(NC(=S)Nc2ccccc2)sc2c1CCCCC2", "Potency": "active: 3.98 µM"}, {"smiles": "CCC(=O)NC(c1ccc([N+](=O)[O-])cc1)c1c(O)ccc2ccccc12", "note": "(stereo not given)", "Potency": "active: 11.2 µM"}, {"smiles": "CCOc1ccc(CNc2ccc(CNc3ncn[nH]3)cc2)cc1", "Potency": "inconclusive [inhibitor, single point]"}, {"smiles": "Cc1nn(C)c(C)c1CN(Cc1nc(CCC(C)C)no1)C(C)C", "Potency": "active: 3.98 µM"}, {"smiles": "C(=N\\Nc1nc2ccccc2[nH]1)/c1cccs1", "Potency": "active: 4.47 µM"}, {"smiles": "CC(C)C(OC(=O)c1ccco1)C(=O)NCc1cccs1", "note": "(stereo not given)", "activity, negative = inhibition": "inactive: -10.9%"}, {"smiles": "Cc1ccc(/C=C2/C(=O)c3ccc(C(=O)O)cc3C2=O)o1", "Potency": "inconclusive [inhibitor, single point]"}, {"smiles": "Cc1ccc(SCCNC(=S)Nc2ccc(C)c(C)c2)cc1", "Potency": "active: 8.91 µM"}, {"smiles": "Cn1c(=O)c2cc(S(=O)(=O)NC(C(=O)Nc3cccc(F)c3)c3ccccc3)ccc2n(C)c1=O", "note": "(stereo not given)", "activity, negative = inhibition": "inactive: 10.9%"}, {"smiles": "COc1ccc2nc(SCC(=O)Nc3ccccc3)[nH]c2c1", "activity, negative = inhibition": "inactive: -9.19%"}, {"smiles": "O=C(NNC(=S)NCc1ccc(Cl)cc1)c1ccc(Br)o1", "activity, negative = inhibition": "inactive: -3.21%"}, {"smiles": "CCN(CC)NC(=S)Nc1ccccc1", "Potency": "inconclusive [inhibitor, single point]"}, {"smiles": "Cc1cc(C(=O)N/N=C/C=C/c2ccc3c(c2)OCO3)n[nH]1", "activity, negative = inhibition": "inactive: 0.694%"}, {"smiles": "O=C(N/N=C/c1cccc(F)c1)c1csc2c1CCCC2", "Potency": "inconclusive [inhibitor, single point]"}, {"smiles": "COc1ccccc1OCCn1nnc2ccccc21", "activity, negative = inhibition": "inactive: 14.4%"}, {"smiles": "CC(=O)C1=NN(c2ccccc2)C(c2cccs2)N1c1ccccc1", "note": "(stereo not given)", "Potency": "inconclusive [inhibitor, single point]"}, {"smiles": "CCOc1cccc(C(=O)Nc2ccc(NC(=O)c3cc4ccccc4o3)c(OC)c2)c1", "Potency": "inconclusive [inhibitor, partial curve, poor fit]"}, {"smiles": "COc1cccc(CC(=O)n2nc(N)c3cc4ccc(OC)cc4nc32)c1", "Potency": "inconclusive [inhibitor, single point]"}, {"smiles": "CC(=O)Nc1ccc(S(=O)(=O)N2CCN(C(=O)C3COc4ccccc4O3)CC2)cc1", "note": "(stereo not given)", "activity, negative = inhibition": "inactive: -15.7%"}, {"smiles": "C/C(=N\\NC(=O)c1sccc1-n1cccc1)c1cccs1", "Potency": "inconclusive [activator, single point]"}, {"smiles": "COc1ccc(-c2ccc3cc(C(=O)O)ccc3c2)cc1C12CC3CC(CC(C3)C1)C2", "Potency": "inconclusive [inhibitor, single point]"}, {"smiles": "O=C(Nc1ccc(Br)c2cccnc12)c1ccc(Cn2cc(Cl)cn2)o1", "Potency": "inconclusive [activator, single point]"}, {"smiles": "CC(C)N(C(=O)CSc1nc2ccccc2n1-c1ccccc1)C(C)C", "Potency": "inconclusive [inhibitor, single point]"}, {"smiles": "CN(C)C(=S)N=Nc1[nH]c2ccccc2c1O", "Potency": "active: 5.62 µM"}, {"smiles": "COc1ccc(CCNC(=O)c2cc3c(=O)n4ccccc4nc3n(CCCN3CCOCC3)c2=N)cc1", "activity, negative = inhibition": "inactive: -0.667%"}, {"smiles": "Cc1cccc(C(=O)Nc2nnc(SCC(=O)Nc3ccc4c(c3)oc3ccccc34)s2)c1", "Potency": "inconclusive [inhibitor, single point]"}, {"smiles": "CCOC(=O)c1ccc(NC(=S)NC(=O)C2CCCC2)cc1", "Potency": "active: 7.08 µM"}, {"smiles": "Cc1c(Cl)cccc1NC(=O)CN1C(=O)CSc2ncccc21", "Potency": "inconclusive [inhibitor, single point]"}, {"smiles": "CC(C)CC(O)C1CCN(C(=O)CCc2nnc(-c3ccc4c(c3)OCO4)o2)CC1", "note": "(stereo not given)", "activity, negative = inhibition": "inactive: -0.745%"}, {"smiles": "COc1cc(C2CC(=O)OC3=C2C(=O)CC(C)(C)C3)cc(OC)c1OC", "note": "(stereo not given)", "activity, negative = inhibition": "inactive: -1.09%"}, {"smiles": "CCOc1cc(N2CCOCC2)c(OCC)cc1NC(=O)Cc1ccccc1OC", "Potency": "active: 22.4 µM"}, {"smiles": "O=C(NNc1c2ccccc2nc2ccccc12)c1ccc(O)cc1", "Potency": "inconclusive [inhibitor, full curve, poor fit]"}, {"smiles": "O=C(Nc1ccc2c(c1)C(=O)N(CC1CCCO1)C2=O)c1ccc(Cl)c(Cl)c1", "note": "(stereo not given)", "Potency": "inconclusive [inhibitor, single point]"}, {"smiles": "C/C(=N\\NC(=O)c1ccc2c(c1)OCCO2)c1ccccc1", "Potency": "active: 7.94 µM"}, {"smiles": "O=C(NCCCn1ccnc1)C(=O)NCC1OCCN1S(=O)(=O)c1ccc(F)cc1", "note": "(stereo not given)", "activity, negative = inhibition": "inactive: 1.26%"}, {"smiles": "C=CCc1cccc(/C=N/NC(=O)c2ccc3nc[nH]c3c2)c1O", "Potency": "inconclusive [inhibitor, single point]"}, {"smiles": "COc1cccc(CC(NC(C)=O)C(=O)NC2CCN(S(=O)(=O)c3ccc(C)cc3)CC2)c1OC", "note": "(stereo not given)", "activity, negative = inhibition": "inactive: -1.1%"}, {"smiles": "CCOC(=O)C1(Cc2ccccc2C(F)(F)F)CCN(C2CCN(C(C)C)CC2)CC1", "activity, negative = inhibition": "inactive: 4.47%"}, {"smiles": "Cc1cccc(NC(=O)C2COc3ccccc3O2)n1", "note": "(stereo not given)", "activity, negative = inhibition": "inactive: 21.2%"}, {"smiles": "CCC(CC)C(=O)Nc1cc(C(=O)NCCc2ccccc2)ccc1Cl", "Potency": "inconclusive [inhibitor, single point]"}, {"smiles": "C=CCN1C(=O)CSc2ccc(C(=O)NCCC3=CCCCC3)cc21", "Potency": "inconclusive [inhibitor, single point]"}, {"smiles": "O=C(CSc1nc(O)c(Cc2ccccc2)c(=O)[nH]1)c1ccccc1", "Potency": "inconclusive [activator, full curve, poor fit]"}, {"smiles": "Cc1ccc(N2C(=O)NC(NC(=O)C(C)(C)C)(C(F)(F)F)C2=O)cc1C", "note": "(stereo not given)", "Potency": "inconclusive [activator, single point]"}, {"smiles": "CN(C)S(=O)(=O)N1CCC(Oc2ccc(C(=O)NC3Cc4ccccc4C3)cc2)CC1", "Potency": "inconclusive [inhibitor, single point]"}, {"smiles": "CCCCc1c2ccccc2nc2[nH]c3ccccc3c12", "activity, negative = inhibition": "inactive: -9.41%"}, {"smiles": "CCCCCC1CCC(c2n[nH]c(=S)n2C)CC1", "note": "(stereo not given)", "Potency": "active: 3.98 µM"}, {"smiles": "CC(NC(=S)NC1CCCCC1)c1ccccc1", "note": "(stereo not given)", "Potency": "inconclusive [inhibitor, single point]"}, {"smiles": "C/C(=N\\NC(=O)Cc1cccn1C)c1ccc2ccccc2c1", "activity, negative = inhibition": "inactive: 6.89%"}, {"smiles": "CC(C)C[C@H](NC(=O)[C@@H]1CCCN1C(=O)[C@H](CO)NC(=O)[C@H](Cc1ccccc1)NC(=O)CNC(=O)[C@@H]1CCCN1C(=O)[C@@H]1CCCN1C(=O)[C@@H](N)CCCN=C(N)N)C(=O)O", "activity, negative = inhibition": "inactive: -5.6%"}, {"smiles": "Cn1cnc2c(N/N=C/c3cccs3)ncnc21", "Potency": "inconclusive [inhibitor, single point]"}, {"smiles": "Cn1c(SCC(=O)Nc2ccc3nc(SCC(=O)N4CCCC4)sc3c2)nnc1-c1ccccc1", "activity, negative = inhibition": "inactive: -13.5%"}, {"smiles": "O=C(O)C1CCCCC1C(=O)Nc1ccc(OCc2ccccc2)cc1", "note": "(stereo not given)", "Potency": "inconclusive [activator, single point]"}, {"smiles": "CCCC(=O)OCCNc1cc(Sc2nc3ccccc3[nH]2)c2nonc2c1[N+](=O)[O-]", "Potency": "active: 3.16 µM"}, {"smiles": "COc1ccc(OC)c(-c2cc(C(=O)N3CCc4ccccc4C3)no2)c1", "Potency": "inconclusive [inhibitor, single point]"}, {"smiles": "Cc1cc(-c2ccccc2)c2c(=O)[nH][nH]c2n1", "Potency": "inconclusive [inhibitor, single point]"}, {"smiles": "COc1ccc(NC(=O)Cn2nnc(C(=O)NCc3cccs3)c2N)c(OC)c1", "activity, negative = inhibition": "inactive: -16.2%"}]}]}
